Measured values published in the supplement of paper PMC5499739.
Whole data set: some 16,000 sequences, median “Z-score” near -0.37, cut for the highest 2% near 3.2. The list shows a part of the results.

The sequences below were run on RBM10 RRM1-ZnF (GST-tagged construct) (assay: RNAcompete 7-mer binding Z-score; higher = stronger binding preference).
Description: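 RNAcompete: 20 pmol GST-tagged RBM10 RNA-binding constructs were incubated with a designed RNA pool of about 241,000 sequences up to 41 nt (1.5 nmol) on glutathione beads for 30 min at 4 °C and washed. Bound RNAs were identified by microarray hybridisation. Each RNA 7-mer is scored by a one-sided Z-score of its enrichment, computed over probes that contain the 7-mer within longer pool sequences.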

Row | Sequence | RNAcompete 7-mer binding Z-score
1 | GCGGCCA | -0.126
2 | UGUAGCA | -0.106
3 | UCCCGUG | -0.246
4 | UUACCGU | -0.772
5 | UGAACAG | 0.365
6 | AUAGGAC | 0.888
7 | UAAUGUC | -0.35
8 | UCAUCUC | -0.815
9 | CAUACCU | -0.792
10 | GCCUUCC | -0.639
11 | GGCGGGG | 3.96
12 | UUCAUUG | -0.539
13 | CCUAAGA | -0.48
14 | UCGUCAG | -0.37
15 | GAUCUCC | -0.86
16 | GCGCCAU | -0.49
17 | UCCGGUC | -0.617
18 | UCACAUU | -0.691
19 | CGAUGUA | -0.00571
20 | CCUUUAU | -0.893
21 | GCUAGGA | 0.92
22 | GUUCAAG | -0.116
23 | CGAGAGC | -0.0869

Row | Sequence | RNAcompete 7-mer binding Z-score
24 | GCUCCCC | 0.0105
25 | UCCCGAU | -0.873
26 | CCCUCCC | -0.21
27 | UGUACCC | -0.617
28 | GGCACUC | -0.168
29 | GUAUCCU | -0.72
30 | UUUGACG | -0.522
31 | CGCAGAG | 0.335
32 | UAGCGAC | -0.149
33 | UACCGGA | -0.0285
34 | AGCCCCG | -0.454
35 | CGUCAGG | 0.378
36 | UGCGUAG | 0.192
37 | UACGGGU | 1.94
38 | UUAGUCC | -0.591
39 | AUCCCCC | -0.461
40 | CUCUUAG | -0.617
41 | UGAGAAG | 1.04
42 | GCAUUCA | -0.396
43 | AAAGUUU | -0.415
44 | GAAACUA | -0.373
45 | GGCACAU | 0.163
46 | UACUAUG | -0.366

Row | Sequence | RNAcompete 7-mer binding Z-score
47 | ACAACUC | -0.798
48 | AAAUGCU | -0.36
49 | GCAAUUA | -0.659
50 | GUGCACA | 0.121
51 | UCUGGUU | -0.155
52 | GUCCGAA | -0.633
53 | AUUGAGG | 1.63
54 | UACAUAG | -0.191
55 | GGUCGGC | 0.699
56 | CAAAACA | -0.451
57 | ACACACC | -0.503
58 | AGACCCC | -0.88
59 | GUAAAAU | 0.0203
60 | CUCUUUA | -0.837
61 | UACGAUG | 0.115
62 | UGUGCGA | 0.235
63 | GCAUGAU | -0.0479
64 | CUCGCGU | -0.522
65 | ACGCAGG | 0.69
66 | GGACUUU | -0.139
67 | AUGAGGG | 3.84
68 | UCCCCGA | -0.36
69 | AGAGCAC | -0.623

Row | Sequence | RNAcompete 7-mer binding Z-score
70 | UUCGGUA | -0.282
71 | AGCCAGC | -0.396
72 | AUUAGGC | 0.218
73 | GGAGUCC | 0.738
74 | UAUCUGG | -0.337
75 | CGGGUGU | 2.14
76 | GACCGAG | -0.21
77 | GCAUACU | -0.694
78 | UAAACUU | -0.633
79 | CACUACC | -0.552
80 | UAGUUGG | 1.32
81 | UAGGUGA | 2.48
82 | CCCAGAG | 0.0983
83 | AACUAAG | -0.301
84 | CCAUUGA | -0.642
85 | UGUGUAG | 0.797
86 | GGUGGAA | 3.81
87 | AUCCCAC | -0.509
88 | CCGGCGG | 0.261
89 | CUAUCCC | -0.772
90 | CCGGAGG | 0.729
91 | UCCACAG | -0.522
92 | GUGUUGU | 0.368

Row | Sequence | RNAcompete 7-mer binding Z-score
93 | GUAACGU | 0.082
94 | AUCAGCA | -0.272
95 | UCGCCGC | -0.493
96 | AGCAAGA | 0.043
97 | GAGAUCC | -0.321
98 | AGAUUAA | -0.0934
99 | GGGGGUG | 4.02
100 | AUCCAGC | -0.769
101 | CGGUACC | -0.275
102 | AGGUUAA | 1.16
103 | CAGUUGC | -0.373
104 | UCUAAAC | -0.746
105 | CAGCCUG | -0.513
106 | GUCGCUG | -0.0512
107 | GGAAGGA | 4.79
108 | AGAGAGG | 1.27
109 | AUCGUCC | -0.854
110 | CCCUUAA | -0.75
111 | UAUACUC | -0.769
112 | AGAAGUU | -0.116
113 | CUGUCCG | -0.607
114 | CACCAAU | -0.639
115 | GUGACCU | -0.509

Row | Sequence | RNAcompete 7-mer binding Z-score
116 | CGAUUCG | -0.565
117 | GGGGAUG | 4.52
118 | CAAGCGU | -0.418
119 | GUCGAGG | 1.85
120 | AUUGCUG | -0.246
121 | UAGUGGC | 0.501
122 | GCCCUUU | -0.928
123 | UUUGCGA | -0.642
124 | GCAGCCG | -0.402
125 | ACACCCC | -0.165
126 | CUGUCGG | -0.305
127 | UACGUCU | -0.746
128 | AGGGUCG | 1.41
129 | UUAACUC | -0.821
130 | AUGCGUG | 0.436
131 | AUUCUAG | -0.532
132 | CCUUGCA | -0.873
133 | ACUGCUU | -0.919
134 | CUAAUCU | -0.896
135 | GUGAAAG | 1.6
136 | AUCAUAC | -0.685
137 | AGCCCGA | -0.483
138 | GUCGCCA | -0.337

Row | Sequence | RNAcompete 7-mer binding Z-score
139 | UUUUAAC | -0.818
140 | AUUGACU | -0.522
141 | CCCCUCU | -0.49
142 | AAUCCUA | -0.915
143 | CCUAUGG | -0.448
144 | ACGACCG | -0.633
145 | GCAUUGG | 0.641
146 | CGUGAGU | 0.0983
147 | UCAUCAA | -0.555
148 | UAUAACU | -0.555
149 | CGUUCGA | -0.704
150 | AUGCAUU | -0.594
151 | CGCUAAC | -0.707
152 | GUAACCC | -0.259
153 | GUGGUCC | 0.16
154 | CUGCGCU | -0.633
155 | UCCAGUA | -0.448
156 | AAUCCGA | -0.629
157 | CAGACAC | -0.285
158 | GGCUCUG | -0.357
159 | GCGCAGG | 1.5
160 | GAGUCUU | -0.422
161 | CUGGCUG | 0.0853

Row | Sequence | RNAcompete 7-mer binding Z-score
162 | AUAUCGU | -0.516
163 | UCAAGAG | -0.00571
164 | AAUAUUA | -0.513
165 | ACUCGGA | -0.165
166 | CUGUAGU | -0.516
167 | UCACGCG | -0.288
168 | CAGUCUG | -0.555
169 | GGGUGAC | 3.04
170 | AACUGAG | -0.00571
171 | CCAUCUA | -0.782
172 | CGCCACG | -0.0804
173 | GACGCCA | -0.607
174 | UGAGAAU | 0.264
175 | CCAUGCA | -0.737
176 | GUUAGCU | -0.373
177 | UGAUACG | 0.082
178 | UAGGAGG | 2.77
179 | ACAUAAG | -0.217
180 | GCGUUUG | 0.131
181 | CAAGUUC | -0.753
182 | GACGGCA | 0.241
183 | GGACAGC | 0.732
184 | GCCGGAU | 0.17
